# The BET-seq Pho4 binding data (Le et al. 2018)
# Some of the results follow. The energies were worked out here from pooled read counts, against the library average; single values are noisy.
# Target: T1, Pho4 (S. cerevisiae) (UniProt P07270)
# T1 sequence: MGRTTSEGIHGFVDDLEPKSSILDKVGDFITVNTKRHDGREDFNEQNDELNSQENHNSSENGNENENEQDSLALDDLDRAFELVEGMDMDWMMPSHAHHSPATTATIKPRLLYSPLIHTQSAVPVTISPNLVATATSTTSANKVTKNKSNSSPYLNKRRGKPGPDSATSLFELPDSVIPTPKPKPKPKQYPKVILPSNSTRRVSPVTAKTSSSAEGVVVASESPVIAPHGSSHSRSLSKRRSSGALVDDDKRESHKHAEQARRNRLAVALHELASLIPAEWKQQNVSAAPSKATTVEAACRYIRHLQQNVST
# Experiment: relative binding free energy (BET-seq); higher = weaker binding
# Conditions: reference: library average
row,Sequence,relative binding free energy
1,TATCGCACGTGAGGAT,0.29 kcal/mol
2,CAGTTCACGTGTGTAG,0.23 kcal/mol
3,AGGTGCACGTGTTTCT,-0.09 kcal/mol
4,TTGTACACGTGGAGGG,-0.05 kcal/mol
5,CGGGGCACGTGCGCGT,-0.31 kcal/mol
6,CTGATCACGTGGGGTG,-0.13 kcal/mol
7,GGTTCCACGTGTTCGG,0.12 kcal/mol
8,TATTACACGTGGGGTG,-0.07 kcal/mol
9,TCGGGCACGTGCGTTA,-0.02 kcal/mol
10,ATTTCCACGTGTTTTG,0.02 kcal/mol
11,GTGGTCACGTGATTAT,0.33 kcal/mol
12,TTGTACACGTGTCGCG,0.12 kcal/mol
13,AGGTTCACGTGTAAGA,0.24 kcal/mol
14,ATGGTCACGTGGGTAG,-0.06 kcal/mol
15,ATAGGCACGTGACAGT,-0.01 kcal/mol
16,AGTAACACGTGCGAGG,-0.01 kcal/mol
17,GTTGCCACGTGGTGAA,0 kcal/mol
18,AGCGACACGTGGTTAT,0.11 kcal/mol
19,CGCGTCACGTGGTTTT,0.19 kcal/mol
20,TCAGGCACGTGCTGTT,-0.22 kcal/mol
21,GTTACCACGTGGGTCG,0.04 kcal/mol
22,TTAATCACGTGTTAAT,0.19 kcal/mol
23,TTGGGCACGTGTGGCA,0 kcal/mol
24,ATGCCCACGTGTGTGG,-0.11 kcal/mol
25,TGTGGCACGTGGTGAA,-0.04 kcal/mol
26,AGGAACACGTGAGTTG,0.3 kcal/mol

row,Sequence,relative binding free energy
1,GGGTGCACGTGATCTT,0.11 kcal/mol
2,GTAGACACGTGGTGCT,0.19 kcal/mol
3,AGTCGCACGTGTAGGG,0.01 kcal/mol
4,CACGGCACGTGAGGGG,0.16 kcal/mol
5,ATTCGCACGTGCAGGG,-0.04 kcal/mol
6,TTTCGCACGTGGTGAA,-0.11 kcal/mol
7,GGGGCCACGTGTGCCG,0.02 kcal/mol
8,AACGTCACGTGTTTGG,0.02 kcal/mol
9,ACGAGCACGTGGTAGG,-0.28 kcal/mol
10,TTATACACGTGAAAGT,0.34 kcal/mol
11,TCATGCACGTGATATT,0.18 kcal/mol
12,GATCTCACGTGTAAGG,0.33 kcal/mol
13,AGATTCACGTGTTAGG,0.22 kcal/mol
14,CTTGTCACGTGGGCGG,-0.1 kcal/mol
15,TAATGCACGTGATCGT,0.05 kcal/mol
16,TTTTGCACGTGTTTTT,0.04 kcal/mol
17,CTGTTCACGTGTGGTC,0.3 kcal/mol
18,GTATGCACGTGGGCGC,-0.24 kcal/mol
19,TTTGTCACGTGCGTGT,0.01 kcal/mol
20,TGAAGCACGTGGAGAG,-0.11 kcal/mol
21,CGCAGCACGTGTTGGA,0.02 kcal/mol
22,TAATGCACGTGGAATG,0 kcal/mol
23,GAATGCACGTGTTAGG,0.07 kcal/mol
24,GTGAGCACGTGTGGTT,-0.02 kcal/mol
25,TTATTCACGTGCTATG,0.09 kcal/mol
26,TGGAACACGTGAGGAT,0.25 kcal/mol

row,Sequence,relative binding free energy
1,GGTGGCACGTGGCTAG,-0.14 kcal/mol
2,AGTTACACGTGTGGGA,0.18 kcal/mol
3,TAATTCACGTGGTAAG,0.27 kcal/mol
4,TTGTTCACGTGTATAG,0.28 kcal/mol
5,TCTGACACGTGGGGAA,-0.11 kcal/mol
6,TTGTGCACGTGTGCCG,0.04 kcal/mol
7,ATTTACACGTGTTTTA,0.21 kcal/mol
8,TGTTTCACGTGTACTA,0.35 kcal/mol
9,AGGCTCACGTGTTTTT,0.28 kcal/mol
10,TTAGACACGTGGGAAG,-0.02 kcal/mol
11,AGATTCACGTGTTAGA,0.29 kcal/mol
12,TTGTTCACGTGTAAGT,0.4 kcal/mol
13,AAGTTCACGTGGCGTT,0.12 kcal/mol
14,AGAAACACGTGTGGGG,0.05 kcal/mol
15,TTTGACACGTGCAGTG,0.04 kcal/mol
16,AATATCACGTGTTGTG,0.09 kcal/mol
17,ATATTCACGTGTTTGG,0.15 kcal/mol
18,GATTACACGTGGTTTA,0.03 kcal/mol
19,GGAGGCACGTGACGGT,-0.02 kcal/mol
20,ATCTACACGTGGGGGT,0.06 kcal/mol
21,CAGGGCACGTGGTATG,-0.33 kcal/mol
22,AGTCGCACGTGGTGCG,-0.16 kcal/mol
23,TATGGCACGTGTAAAA,0.08 kcal/mol
24,GGTAGCACGTGTTTAA,-0.02 kcal/mol
25,TAGTTCACGTGATCTG,0.37 kcal/mol
26,TAGGGCACGTGTATTT,0.06 kcal/mol

row,Sequence,relative binding free energy
1,AGGTGCACGTGAACGG,0.24 kcal/mol
2,CATTGCACGTGTGTTA,-0.07 kcal/mol
3,GGTTTCACGTGTCGCG,0.41 kcal/mol
4,ATGAGCACGTGTGTGT,-0.08 kcal/mol
5,TGAGGCACGTGAAGGC,0.05 kcal/mol
6,TATGTCACGTGCCTGG,-0.01 kcal/mol
7,GGGCGCACGTGGATTT,0.11 kcal/mol
8,TGTTACACGTGGATTG,0.06 kcal/mol
9,TATGCCACGTGGTAAT,-0.12 kcal/mol
10,GTGGGCACGTGTGCCT,-0.12 kcal/mol
11,TACTTCACGTGTAGTG,0 kcal/mol
12,TTTAGCACGTGGTGCG,-0.09 kcal/mol
13,TTTGGCACGTGGGCGG,-0.19 kcal/mol
14,CTGTGCACGTGAGGCG,-0.04 kcal/mol
15,CTGAGCACGTGGAAGG,0.07 kcal/mol
16,GGGAGCACGTGCATGA,-0.04 kcal/mol
17,CTTTGCACGTGTTATA,-0.03 kcal/mol
18,GTGATCACGTGGATGG,0.12 kcal/mol
19,AGTTTCACGTGGGCGT,0.17 kcal/mol
20,AGTGGCACGTGTGGAC,-0.06 kcal/mol
21,AAAGGCACGTGCGGGG,-0.16 kcal/mol
22,AATTGCACGTGACGGG,0.22 kcal/mol
23,TCGGTCACGTGTTCTT,0.29 kcal/mol
24,CGGTGCACGTGCCTGG,-0.09 kcal/mol
25,CCTGTCACGTGTGTTG,0.08 kcal/mol
26,GCGGTCACGTGGCTGG,0.09 kcal/mol

row,Sequence,relative binding free energy
1,GTGTCCACGTGTTTGT,0.07 kcal/mol
2,TGTGGCACGTGCGTCA,-0.19 kcal/mol
3,TTGCACACGTGCGTTT,0.04 kcal/mol
4,TAAGTCACGTGCGGCG,0.14 kcal/mol
5,TTCTTCACGTGATAGA,0.28 kcal/mol
6,TTGGGCACGTGCATTA,-0.13 kcal/mol
7,GATGGCACGTGTTTTC,0.03 kcal/mol
8,GGTAGCACGTGCGTGG,-0.12 kcal/mol
9,CCGGGCACGTGGGCGT,-0.35 kcal/mol
10,AGTTGCACGTGCGCGT,-0.1 kcal/mol
11,TATGTCACGTGTTGAT,0.04 kcal/mol
12,TTAATCACGTGGGCTT,-0.08 kcal/mol
13,AGACTCACGTGGGTAG,0.27 kcal/mol
14,TGTTTCACGTGTCGTC,0.31 kcal/mol
15,ATGCTCACGTGTGGGC,0.25 kcal/mol
16,CTGGTCACGTGAGTTT,0.36 kcal/mol
17,TTGTCCACGTGTAAGG,0.22 kcal/mol
18,ATAGCCACGTGTGGGA,-0.1 kcal/mol
19,TAGGACACGTGTAAGT,0.12 kcal/mol
20,GGTTACACGTGTGAAA,0.17 kcal/mol
21,TGGACCACGTGTGCGG,0.02 kcal/mol
22,ACTTACACGTGGGGTA,-0.03 kcal/mol
23,TACTGCACGTGTTGGG,0.01 kcal/mol
24,CGCTTCACGTGTGGCG,0.21 kcal/mol
25,ATGTACACGTGAGCGT,0.14 kcal/mol
26,CGATTCACGTGGTTCG,0.39 kcal/mol

row,Sequence,relative binding free energy
1,GAGTTCACGTGTAATT,0.33 kcal/mol
2,CGGGTCACGTGGTGAT,0.01 kcal/mol
3,TGGGACACGTGGTGGT,0.02 kcal/mol
4,ACGGGCACGTGAGCTG,0.17 kcal/mol
5,TCTTGCACGTGGCTGG,-0.1 kcal/mol
6,GGGGTCACGTGTCTGA,0.12 kcal/mol
7,TCTGTCACGTGAGAGT,0.24 kcal/mol
8,GCCTTCACGTGGGTGT,0.17 kcal/mol
9,GTTGCCACGTGTGTGA,-0.06 kcal/mol
10,GTTAGCACGTGGTCTA,-0.17 kcal/mol
11,GTTTACACGTGGTTTG,0.04 kcal/mol
12,TTCCTCACGTGTTTAG,0.33 kcal/mol
13,GGTAACACGTGAATTT,0.35 kcal/mol
14,TCGTTCACGTGGTTCT,0.28 kcal/mol
15,GTTTACACGTGATGGA,0.36 kcal/mol
16,GTGTACACGTGGTCAA,0.02 kcal/mol
17,GGATGCACGTGTATGG,0.03 kcal/mol
18,ACGGGCACGTGGGAGA,-0.15 kcal/mol
19,ACAAGCACGTGTTTGG,-0.07 kcal/mol
20,AGAATCACGTGTGGAG,0.25 kcal/mol
21,TAATCCACGTGGGTGG,-0.14 kcal/mol
22,GTATTCACGTGGGAAT,0.28 kcal/mol
23,AGGTACACGTGGTTCT,-0.03 kcal/mol
24,TTGTTCACGTGCTAAT,0.25 kcal/mol
25,AGTATCACGTGAGTAT,0.21 kcal/mol
26,GTTCTCACGTGGATAT,0.31 kcal/mol

row,Sequence,relative binding free energy
1,GGAATCACGTGGTCGT,0.03 kcal/mol
2,GTATACACGTGTTGAG,0.09 kcal/mol
3,GTACTCACGTGAGGAG,0.46 kcal/mol
4,AAAATCACGTGGAGGG,-0.01 kcal/mol
5,ACGTGCACGTGGTTAT,0.01 kcal/mol
6,CGGAGCACGTGTAGGC,-0.01 kcal/mol
7,TAGCTCACGTGGGGGA,0.21 kcal/mol
8,TTATGCACGTGGATGC,0.04 kcal/mol
9,TGGCACACGTGAGGTT,0.28 kcal/mol
10,AGGTGCACGTGGCACG,-0.16 kcal/mol
11,CATGGCACGTGGATTT,-0.05 kcal/mol
12,ATTAACACGTGGTGAG,0 kcal/mol
13,TGTGACACGTGATGGT,0.09 kcal/mol
14,TTATGCACGTGGAGAT,-0.01 kcal/mol
15,TGCCTCACGTGGGAGG,-0.01 kcal/mol
16,GTTGGCACGTGACTAT,0.02 kcal/mol
17,AGTCACACGTGGTGTA,0.07 kcal/mol
18,GGTGTCACGTGCTGTA,0.11 kcal/mol
19,AGGGTCACGTGCGGCC,0.13 kcal/mol
20,AATGTCACGTGTGCTG,0.21 kcal/mol
21,AGCTGCACGTGGGGTG,-0.27 kcal/mol
22,CGCGGCACGTGCGTGG,-0.23 kcal/mol
23,AGTGACACGTGACTTG,0.18 kcal/mol
24,TTTGGCACGTGCTGGT,-0.07 kcal/mol
25,TTCAACACGTGATGTG,0.2 kcal/mol
26,ATAAGCACGTGCAGGT,-0.14 kcal/mol

row,Sequence,relative binding free energy
1,GAATTCACGTGTGACT,0.65 kcal/mol
2,GCTTTCACGTGTCGGT,0.21 kcal/mol
3,GTTTGCACGTGAGTGA,0.29 kcal/mol
4,AGTGTCACGTGATTTC,0.17 kcal/mol
5,TTGGCCACGTGTTAGT,0.06 kcal/mol
6,TTATTCACGTGAGGAA,0.37 kcal/mol
7,AGAGTCACGTGCGCGT,0.11 kcal/mol
8,TAAAACACGTGTGTAT,0.01 kcal/mol
9,TTTGGCACGTGGGTCG,-0.13 kcal/mol
10,TAATTCACGTGGTTGT,0.41 kcal/mol
11,GTGAACACGTGGGGAA,-0.12 kcal/mol
12,TGAGTCACGTGGTATA,0.17 kcal/mol
13,CGGTTCACGTGAGTAA,0.4 kcal/mol
14,AACGGCACGTGTGGAG,0.06 kcal/mol
15,ACGAGCACGTGGGGGA,-0.11 kcal/mol
16,CGGCGCACGTGCGGTG,-0.19 kcal/mol
17,GTATTCACGTGGGTTC,0.06 kcal/mol
18,TTACGCACGTGGAGGA,-0.12 kcal/mol
19,TTGCACACGTGGGTAG,-0.05 kcal/mol
20,AAGATCACGTGATTGT,0.14 kcal/mol
21,CAAGTCACGTGTGATG,0.14 kcal/mol
22,TCACGCACGTGGTGTG,-0.19 kcal/mol
23,TTTGTCACGTGTTAGG,0.12 kcal/mol
24,GCGGACACGTGTGATG,0.18 kcal/mol
25,TGCGTCACGTGAATGA,0.33 kcal/mol
26,TTTTACACGTGTGGAA,0.2 kcal/mol

row,Sequence,relative binding free energy
1,GTGTACACGTGGACTG,0 kcal/mol
2,CTGTGCACGTGTGGTG,0.04 kcal/mol
3,GTATGCACGTGGGGGC,-0.09 kcal/mol
4,TATGTCACGTGATTTC,0.2 kcal/mol
5,AAATTCACGTGGGGTC,0.13 kcal/mol
6,TCATGCACGTGAGGGG,0.15 kcal/mol
7,AGGGCCACGTGTTCGG,-0.01 kcal/mol
8,AGGGCCACGTGGAAGT,-0.09 kcal/mol
9,TTTCGCACGTGTAGAG,0.07 kcal/mol
10,ATGGCCACGTGTTGCT,-0.01 kcal/mol
11,AGTCCCACGTGGGTGG,-0.29 kcal/mol
12,CGTTTCACGTGTGTAT,0.24 kcal/mol
13,ATTTGCACGTGTCTCG,0.07 kcal/mol
14,TGACACACGTGGTGGG,-0.13 kcal/mol
15,GGTTTCACGTGCGTTA,0.24 kcal/mol
16,GTGATCACGTGAGATG,0.28 kcal/mol
17,TGATGCACGTGGGTGT,-0.16 kcal/mol
18,CGTATCACGTGAAGTT,0.35 kcal/mol
19,AATTACACGTGTCGGG,0.17 kcal/mol
20,GGGGGCACGTGCGTTT,-0.07 kcal/mol
21,AGGTACACGTGGCGAG,-0.04 kcal/mol
22,ATGATCACGTGTGTCT,0.1 kcal/mol
